Source: the supplement of paper PMC11417369
± gives the standard deviation of the averaged measurements. The list shows a part of the results.

What follows are sequences tested on PfAP2-G AP2 domain (GST-tagged) (assay: gcPBM binding intensity (ln(normalized median fluorescence intensity)); higher = stronger DNA binding).
Outline: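 GST-fused DNA-binding domains of P. falciparum, expressed in E. coli, were applied at about 25 μg on average for 1 h to an Agilent 4 × 180k array of primer-extended double-stranded 36-bp intergenic genomic probes and negative controls. Binding intensity is the highest Masliner-normalised natural-log median intensity across replicate spots of either probe orientation, measured with Alexa488 anti-GST antibody and a 488 nm scan.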

| Sequence | gcPBM binding intensity (ln) |
| --- | --- |
| TATACATTATTATTATGTACTTAAATATATATTATA [XGTACX_site5173] | 11.1 ± 0.83 |
| ATTAACACATTTAAGTGTACATATATAAATATATAT [XGTACX_site7098] | 11.4 ± 0.83 |
| TGTTGTATATCTCTATATAGCTATATTGTATATATA [TGCATGCA_negctrl_site323] | 9.79 ± 0.13 |
| TATATTATTTATTAGACACACATTATTAAAATATTT [CACACA_site4737] | 9.92 ± 0.17 |
| CCTTGATATATATAAAGTACATATATATATATATAT [XGTACX_site4325] | 11.3 ± 0.86 |
| GTGAAATTATTTCCGTGTACACATAAATATATATTT [XGTACX_site3989] | 11.8 ± 0.99 |
| AAACTTATAAAAAGTAGTACCATAAAATAATACATA [XGTACX_site6523] | 11.4 ± 0.81 |
| ATATATATATATAGTTGTACTTAATTTTATATGTTA [XGTACX_site5256] | 11.3 ± 1 |
| AAATAATTATTTATCACACATATGTATTTATATATA [CACACA_site4589] | 10.2 ± 0.21 |
| CTTTTTTTAATGATAACACACATGTTGTGCATAGAC [CACACA_site3270] | 10.3 ± 0.2 |
| AATATGTGAATATAATCACACACAATACGGAAACAC [CACACA_site8875] | 10.7 ± 0.49 |
| AAAGAAGGATAATAATGTACAAGCAAAAAAATAAAA [XGTACX_site466] | 10.8 ± 0.5 |
| ACATATATTTCAAAGTGTACGCACAATTTTTTTTAC [XGTACX_site6166] | 11.7 ± 1 |
| AACATATATATAATATGTACATAATATATATAAATG [XGTACX_site1161] | 11.2 ± 0.69 |
| TGCTTATATGTTGTTACACACTAAAATAGTTAGATA [CACACA_site1277] | 10.1 ± 0.21 |
| AATACAGTTAGAGAAAGTACACAACTAATATACATA [XGTACX_site8814] | 11.4 ± 0.66 |
| TTAGTTTCCCAAATATGTACATAAATATAAATCATA [XGTACX_site2746] | 11.2 ± 0.64 |
| TTATTATTTTTTAACACACACATATATATTATATCT [CACACA_site4906] | 9.93 ± 0.071 |
| GTAAGAACACTTTTGTGGTTACTTAAAAGTGTATAT [GTGCAC_negctrl_site422] | 10.6 ± 0.41 |
| ATTTCAACAAATATAACACACAATGGATAAGAATAA [CACACA_site1974] | 10.06 ± 0.099 |
| TTTTTTTTTTTTGATGCACACACCTGAACGAGTTAA [CACACA_site317] | 10.2 ± 0.5 |
| TATTTTTATATATGACGTACTCTACAATTATTAATG [XGTACX_site5818] | 11.2 ± 0.78 |
| AAAATATGTATGTAAAGTACTAATATACAAATTTTT [XGTACX_site5186] | 10.9 ± 0.52 |

| Sequence | gcPBM binding intensity (ln) |
| --- | --- |
| TTAATTATAAGAAAAAGTACTCATTACATTATAGAA [XGTACX_site678] | 11.3 ± 0.76 |
| ATATAAATATTCCACACACACACAAAAAAAAAAAAA [CACACA_site7678] | 10 ± 0.33 |
| TAGTCGTTTTTTTAATGTACTCACGCATAATATAAT [XGTACX_site6499] | 11.5 ± 1.1 |
| ATTATTTTTTTTGTTACACACATGACTTATTTTTAT [CACACA_site3228] | 10.19 ± 0.014 |
| AAAGGATATAGACACACACACACATATATATATATA [CACACA_site2200] | 10.3 ± 0.47 |
| GTTCAAAATATGAACACACACATATAGATTTATATA [CACACA_site7054] | 9.995 ± 0.021 |
| ATCATTTTTAAAGGAACACACAAAAAAAATTAGAAT [CACACA_site1370] | 10.2 ± 0.12 |
| CATATACATCCACATACACACATACACCCATACACA [CACACA_site5038] | 10.5 ± 0.49 |
| TGAAAAGTAAAATACACACACATAATATAATTTATA [CACACA_site1989] | 9.91 ± 0.18 |
| TGTTATTATTTGTACACACACATATATATCCTTGTT [CACACA_site3616] | 11.3 ± 0.75 |
| GGCAACATTTGAAACACACACACATACAAACAAACA [CACACA_site3307] | 10.5 ± 0.48 |
| TCTATATGTTGATTCACACATAAAGAATAAATAAAA [CACACA_site6017] | 10.1 ± 0.16 |
| CATACATACCTATATACACACATATAAAATAATATA [CACACA_site7290] | 10.1 ± 0.23 |
| AGTATACAGATATATACACACATATTTATATTTATA [CACACA_site6394] | 9.89 ± 0.12 |
| ATAAATATATTTTATAGTACATAAATATCAAAAAAA [XGTACX_site2334] | 11 ± 0.61 |
| ATTTTGATGCATGGGTTGCACTAACTTTTGCCCAGA | 10.3 ± 0.27 |
| AAACAATACTGATATTGTACATAATAAAAAAAAATA [XGTACX_site3330] | 10.9 ± 0.52 |
| TATAATATATTATATACACACATTATGAAATCCACA [CACACA_site1330] | 10.04 ± 0.071 |
| AACACGCGCAGACACACACACACACCCACATATATA [CACACA_site2205] | 10.3 ± 0.25 |
| TATATGAACTTATATACACACCATTTTTGTAAATCT [CACACA_site4547] | 10.03 ± 0.028 |
| TACTTAAAATATTTAACAAATAAATAAATAAATAAA [XGTACX_negctrl_site523] | 9.91 ± 0.58 |
| TGAAACCGTTACATGTGTACATATGTTACACATAAT [XGTACX_site7250] | 11.4 ± 0.71 |
| TTCTTTAATACTTATTGTACAATATAATAATCACAA [XGTACX_site6364] | 11.2 ± 0.81 |

| Sequence | gcPBM binding intensity (ln) |
| --- | --- |
| TACTATATAAGTAAGGCATGCATGCCGATTTTTTTA [TGCATGCA_site100] | 9.715 ± 0.035 |
| AAAAAAAAAAAAATATGTACTTATTTTTATGTTAAA [XGTACX_site8802] | 11.5 ± 0.99 |
| ATATTTTTATTTTCTTTACACACCACATAATTTTTT [CACACA_site4060] | 10.3 ± 0.21 |
| ATTAGATATGTAAACTAAAATTATATTCATGATAAT [TGCATGCA_negctrl_site182] | 9.73 ± 0.16 |
| TCTAACAACATGCGCACACACATGAATATTCATATT [CACACA_site1540] | 10.5 ± 0.33 |
| TCACATCTTATATACTGTACATTTCGAATATAAATT [XGTACX_site2508] | 10.9 ± 0.43 |
| TTTCTTTTACATATTTGTACATATATAAATTTATAT [XGTACX_site1787] | 11 ± 0.44 |
| GCCAAAAGGATATGCACACACACACCCATATATATA [CACACA_site2198] | 10.2 ± 0.16 |
| TATATATAGAAACACACACACACCAAAGCGTAGCGC [CACACA_site62] | 9.95 ± 0.028 |
| ATTTACAAAAGGAAAGTGCAAACATGTGATTAAACA [CACACA_negctrl_site714] | 10.14 ± 0.085 |
| AAAAATGAATTATTTTGTACATATATATATATATAT [XGTACX_site3410] | 10.6 ± 0.49 |
| AATAATTGTTAAAGTTGTACTATACGTATATAAGAA [XGTACX_site1432] | 11.2 ± 0.54 |
| CATTATCATGTTTTTTGTACTCATAATAAAAAGCAG [XGTACX_site2056] | 11.3 ± 0.85 |
| CAAGGAACCGGACACACACACATAAATGTATTTATA [CACACA_site4574] | 10.7 ± 0.38 |
| ACATATGACTATAATACACACTTGTATTATTAATAT [CACACA_site6951] | 9.98 ± 0.13 |
| AACTTATTTAAATTCACACATATATAAAATACTTAT [CACACA_site4394] | 9.98 ± 0.028 |
| ATCAATTTAATTTATTGTACTTGTTTGTTTTTTTAT [XGTACX_site7544] | 11.2 ± 0.7 |
| GATAACATAATATGTTGTACATAAAAATTTTTATCA [XGTACX_site1969] | 11.2 ± 0.76 |
| ATAAAGATATGACACACACACATATTATAGATATAT [CACACA_site7434] | 10.12 ± 0.085 |
| TATGTTTTTACGTGTGTGCACTTTGTAGAGATAAGT | 10.5 ± 0.33 |
| ATTTTAATTACATATACACACAAAGGTTCATAACAA [CACACA_site9008] | 10.2 ± 0.28 |
| TAATTTAAACAAAAAAGTACAAATTTCTTTTTATTA [XGTACX_site5244] | 11.2 ± 1 |
| ATTATTTTATTATAGTGTACTTTTTTAATCAAAGGA [XGTACX_site8921] | 11.5 ± 0.93 |

| Sequence | gcPBM binding intensity (ln) |
| --- | --- |
| AATTTTATTACTTTTACACACCTATATATTATTCAT [CACACA_site3273] | 10.1 |
| TTTTAAAAAAAATATAAAAAAAGAGGAGGGATGGTA [GTGCAC_negctrl_site35] | 9.67 ± 0.071 |
| TACTCATAATATTGATAATTAAAAAGATAAACTATT [XGTACX_negctrl_site299] | 9.83 ± 0.11 |
| AAGAGTAAAATATGGTTGCACTAAAAATATATATTT [GTGCAC_site9484] | 10.2 ± 0.21 |
| TATATTTGTTGACACACACACAAAAAAAAAAAAAAA [CACACA_site7211] | 10.2 ± 0.57 |
| GTCTACTACACTAAATGTACAAGAAAAAAGAAAAAA [XGTACX_site4660] | 11 ± 0.71 |
| TTATAGAGCTTATTCACACATACATATGTATTTATA [CACACA_site5775] | 9.92 ± 0.16 |
| ATAATAAAAATATACTGTACATTTGTAAATTCTTTT [XGTACX_site4655] | 10.7 ± 0.47 |
| TATATATATATATAATGTACACATTTTTATAACTAT [XGTACX_site5714] | 11.3 ± 0.73 |
| AAAGATGGAAAAAAAAATTTGTGTGTTGAAAGATAT [GTGCAC_negctrl_site19] | 9.98 ± 0.028 |
| AAAATACAATTTCTAGCACACAAAATATTATTATAA [CACACA_site9056] | 9.88 ± 0.11 |
| GCGTTGTTTTTAAAAAGTACATTTTTATATAAGTTA [XGTACX_site8780] | 11.2 ± 0.86 |
| TATAAAATTCTGACTTGTACATGTGAAAAATAATTA [XGTACX_site1396] | 11 ± 0.52 |
| CTTAATATATGTGGCACACATGTGGAGTCCTATTAA [CACACA_site4281] | 10.7 ± 0.47 |
| TATTATTCAAAATTTGTGCACAAAATTAAAGGAACA | 10.5 ± 0.35 |
| TTTTTAAATAAATGTTTTTATTATATACATATCAAT [TGCATGCA_negctrl_site423] | 9.74 ± 0.071 |
| AAAATAATGTATATAGTGCAAATGAAAACGAAAAAA [GTGCAC_site9455] | 10.17 ± 0.071 |
| CATAATAAGTATAACGTTAGTTACAAACAGCTTGTT [CACACA_negctrl_site937] | 9.92 ± 0.085 |
| TTTGTTTTTTTGAGAGTGCAATATATATAAAAAGGG [GTGCAC_site9691] | 10.5 ± 0.47 |
| TTGGTGATATTTTTCTCACACATTTACCAGAGATGT [CACACA_site4684] | 9.995 ± 0.035 |
